From patent US20260200997A1 (REPLIGEN, published 2026)
Numbering of substitutions follows the chain as printed.

B1: SEQ ID NO 35 (designed binder)
chain: MAQGTVDAKFDKELEEARAEIERLPNLTELQRRNFITHLRADPSDSASLLAIAKSWNDKQAPKAAACGLNDIFEAQKIEWHEHHHHHH
modifications: biotinylated (Avitag system)
notes: 3 helical bundle ligand with Avitag and His tag; N-terminal Met may be absent; also called 35
B2: SEQ ID NO 36 (designed binder)
chain: MAQGTVDAKFDKELEEARAEIERLPNLTEHQRRYFIFSLRNDPSASAILLAAAKRHNDHQAPKAAACGLNDIFEAQKIEWHEHHHHHH
modifications: biotinylated (Avitag system)
notes: 3 helical bundle ligand with Avitag and His tag; N-terminal Met may be absent; also called 36
B3: SEQ ID NO 37 (designed binder)
chain: B1 chain with L30H, T37Q, H38A, A41N, D45G, S55G
modifications: biotinylated (Avitag system)
notes: 3 helical bundle ligand with Avitag and His tag; N-terminal Met may be absent; also called 37
B4: SEQ ID NO 39 (designed binder)
chain: B1 chain with L30V, T37D, A41L, D45H, S48A, I52L, S55G, K59H
modifications: biotinylated (Avitag system)
notes: 3 helical bundle ligand with Avitag and His tag; N-terminal Met may be absent; also called 39
B5: SEQ ID NO 40 (designed binder)
chain: B1 chain with L30I, N34S, T37Q, H38A, A41G, D45S, S48G, I52V, S55R
modifications: biotinylated (Avitag system)
notes: 3 helical bundle ligand with Avitag and His tag; N-terminal Met may be absent; also called 40
B6: SEQ ID NO 41 (designed binder)
chain: B1 chain with N34E, T37L, H38A, A41I, D45L, S48G, I52T, S55G
modifications: biotinylated (Avitag system)
notes: 3 helical bundle ligand with Avitag and His tag; N-terminal Met may be absent; also called 41
B7: SEQ ID NO 42 (designed binder)
chain: B1 chain with L30Q, N34S, T37D, H38A, A41L, D45E, S55G, K59R
modifications: biotinylated (Avitag system)
notes: 3 helical bundle ligand with Avitag and His tag; N-terminal Met may be absent; also called 42
B8: SEQ ID NO 43 (designed binder)
chain: B1 chain with L30V, N34E, T37D, H38Y, A41L, D45Q, S48A, K59S
modifications: biotinylated (Avitag system)
notes: 3 helical bundle ligand with Avitag and His tag; N-terminal Met may be absent; also called 43
B9: SEQ ID NO 118 (designed binder)
chain: MVDAKFDKELEEARAEIERLPNLTEEQRRNFIQALRDDPSSSAGLLALAKHWNDKQAPKVDAKFDKELEEARAEIERLPNLTEEQRRNFIQALRDDPSSSAGLLALAKHWNDKQAPKVDAKFDKELEEARAEIERLPNLTEEQRRNFIQALRDDPSSSAGLLALAKHWNDKQAPKAAAHHHHHHC
modifications: conjugated to bromoacetate-derivatised agarose beads (Praesto Jetted A50)
notes: Three repeats of the 3 helical bundle domain in one chain with a C-terminal His tag and Cys; N-terminal Met may be absent; also called 118

Each binder was assayed against T1, Haptoglobin protein (UniProt P00738 19-160; P00738 162-406, limits assumed) (assay: BLI; ligand held 8 h in 0.25 M NaOH, neutralised, against untreated ligand).
T1 construct: The background describes it as two alpha/beta dimers; also called Hp
T1 sequence (looked up) 1: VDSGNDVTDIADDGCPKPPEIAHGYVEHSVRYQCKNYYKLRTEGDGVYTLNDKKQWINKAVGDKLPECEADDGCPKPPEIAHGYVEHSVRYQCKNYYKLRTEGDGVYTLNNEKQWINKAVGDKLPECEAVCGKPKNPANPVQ
T1 sequence (looked up) 2: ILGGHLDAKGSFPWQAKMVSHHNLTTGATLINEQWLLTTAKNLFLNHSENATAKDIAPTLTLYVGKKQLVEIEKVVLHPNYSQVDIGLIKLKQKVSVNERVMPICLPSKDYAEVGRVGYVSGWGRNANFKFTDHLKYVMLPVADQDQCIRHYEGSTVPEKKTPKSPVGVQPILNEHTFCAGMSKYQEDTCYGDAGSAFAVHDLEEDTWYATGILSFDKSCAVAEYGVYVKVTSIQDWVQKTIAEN
Description: (§1) Biotinylated ligands were immobilized on sensors and incubated with solutions containing Haptoglobin protein at various concentrations. The binding curves were fitted with a 1:1 binding model using the ForteBio software to determine the affinity and the resulting data is shown in the table below. As expected, all affinity agents bind to Haptoglobin protein with high affinity.
Ligands were incubated in 0.25 M NaOH for 8 hours and then neutralized. The binding of the NaOH treated ligands was measured as described in Example 1 and compared to untreated ligand. The binding retained was calculated according to the following formula: […]
In the case of B1, the “Binding retained after 8 hour exposure to 0.25M NaOH (%)” value (shortened to “Binding retained … (%)”) is reported as 84%.
In the case of B2, the “Binding retained … (%)” value is reported as 86%.
In the case of B3, the “Binding retained … (%)” value is reported as 90%.
B4 was tested, and the “Binding retained … (%)” value was 96%.
B5 was tested, and the “Binding retained … (%)” value was 87%.
In the case of B6, the “Binding retained … (%)” value is reported as 91%.
For B7, the “Binding retained … (%)” value was 99%.
In the case of B8, the “Binding retained … (%)” value is reported as 87%.

These binders were tested against T1, Haptoglobin protein (assay: BLI (ForteBio), biotinylated ligand on sensor, haptoglobin in solution, 1:1 fit).
Description: as §1
B1 was tested, and the Kd was 5 nM.
B2 gave a Kd of 2 nM.
B3 was tested, and the Kd was < 1 nM.
Binder B4 has a Kd of 2 nM.
In the case of B5, the Kd is reported as 1 nM.
In the case of B6, the Kd is reported as < 1 nM.
In the case of B7, the Kd is reported as < 1 nM.
With B8 the Kd was < 1 nM.

The binders below were run against T2, serum albumin (human, UniProt P02768 25-609) (assay: affinity column purification from Cohn Fraction V, eluate on reducing 4-20% Tris-glycine SDS-PAGE).
T2 construct: mature
T2 sequence (P02768 25-609): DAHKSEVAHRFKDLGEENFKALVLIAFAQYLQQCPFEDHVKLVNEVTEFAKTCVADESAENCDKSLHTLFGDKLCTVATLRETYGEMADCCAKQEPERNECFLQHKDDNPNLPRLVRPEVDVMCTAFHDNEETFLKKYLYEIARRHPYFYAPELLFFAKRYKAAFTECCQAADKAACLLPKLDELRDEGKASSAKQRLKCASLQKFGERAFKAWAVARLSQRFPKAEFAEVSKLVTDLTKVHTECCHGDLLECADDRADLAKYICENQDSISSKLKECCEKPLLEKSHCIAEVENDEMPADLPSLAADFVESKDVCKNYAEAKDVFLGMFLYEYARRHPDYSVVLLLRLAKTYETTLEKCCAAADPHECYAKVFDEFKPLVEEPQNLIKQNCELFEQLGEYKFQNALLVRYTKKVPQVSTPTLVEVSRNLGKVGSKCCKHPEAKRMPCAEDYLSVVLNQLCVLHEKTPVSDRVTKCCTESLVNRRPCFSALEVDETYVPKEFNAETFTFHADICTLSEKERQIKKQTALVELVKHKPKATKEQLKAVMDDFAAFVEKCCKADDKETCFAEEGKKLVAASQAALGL
Description: Packed columns were used to purify haptoglobin protein from Cohn Fraction V of human plasma with a measured titer of haptoglobin of 0.9 mg/mL. Resins were prepared from ligands corresponding to SEQ ID NO. 118.
Eluate fractions from each purification cycle were collected and purity was analyzed via SDS-PAGE. The data is shown in FIG. 5 and confirms high purity provided by the affinity agent, with a notable absence of serum albumin in the elution fraction. Purity was also assessed by analytical RP-HPLC. Percent purity was calculated by comparing peak area of haptoglobin protein to total area of all peaks in the analysis. The data are shown in FIG. 6 and confirm consistent purification performance across dozens of simulated cycles after exposure to >25 hours of exposure to 0.25 M sodium hydroxide. Yield was determined using analytical RP-HPLC by comparing peak area for haptoglobin in cycle #1 to all subsequent cycles. The data are show in FIG. 7 and confirm that the resin can be cleaned with NaOH and reused for multiple cycles.
B9: no binding.
